Measured values from PubChem BioAssay AID651820 (National Center for Advancing Translational Sciences (NCATS), 2012).
“And” between values parts separate entries of the source, which are not always exact repeats. Identical values can stand only once. The campaign covered roughly 340,000 compounds. About 12,000 (3.5%) were called active. The inconclusive results got no clear call from the source; some entries with a clear call stand among them for comparison. The call rests on the fitted dose curve; in most records, active means well fitted inhibition curve with a large enough effect; inconclusive means small, poorly fitted or top-dose-only effect, or another doubt; inactive means no such curve, though single readings can be large or run the other way. Potencies of inconclusive entries are doubtful fits and often do not repeat.

Test: qHTS Assay for Inhibitors of Hepatitis C Virus (HCV)
Details: Huh7.5.1 HCVcc-Cre (HCVcc is cell-culture hepatitis C virus) infection, luciferase reporter, 44 h; activity change, negative = inhibition: at 41.8 µM (top of the series) unless noted
Text: Hepatitis C virus (HCV) infects about 200 million people in the world. Many infected people progress to chronic liver disease including cirrhosis with a risk of developing liver cancer. To date, there is no effective vaccine for hepatitis C. Current therapy based on interferon is only effective in about half of the patients and is associated with significant adverse effects. The fraction of people with HCV who can complete a successful treatment is estimated to be no more than 10 percent. Recent development of direct-acting antivirals against HCV, such as protease and polymerase inhibitors, is promising but still requires combination with peginterferon and ribavirin for maximal efficacy. In addition, these agents are associated with high rate of resistance and many have significant side effects. Due to the lack of a culture system for infectious HCV, the search for new HCV drugs has been greatly hampered. […] High-throughput screening (HTS) with an infectious HCV system would cover the complete spectrum of potentially druggable targets in all stages of HCV lifecycle, and would have more biological relevance than other cell-based assays. Moreover, targeting several key processes in the viral life cycle may not only increase antiviral efficacy; more importantly, it may also reduce the capacity of the virus to develop resistance to the compound. The goal of this project is to identify novel HCV inhibitors as new therapies for hepatitis C, using a highly sensitive and specific assay platform which is based on a HCV infectious cell culture system established in the laboratory and adapted for high-throughput HCV drug screen. NIH Chemical Genomics Center [NCGC] NIH Molecular Libraries Probe Centers Network [MLPCN] MLPCN Grant: MH095511 Assay Submitter (PI): Jake Liang, NIDDK
The assay will start with plating 1,000 cells/well in 3 µL volume and culture for 4 h. Then 23 nL of compounds from the library collection will be added to each well, followed by adding 2.5 µL of HCVcc-Cre virus (~ 0.5 moi) and further cultured for 44 h before the luciferase assay. A volume of 4.5 µL luciferase substrates will be added to each well and the plates will be incubated at room temperature for 15 min. and then read for 15 sec. for the luciferase activity
On the % scale 0 is the no-effect control and ±100 the full control effect; tags describe the fitted curve by direction and shape.

| Compound | activity change, negative = inhibition | Potency |
| --- | --- | --- |
| COC(=O)c1oc2ccccc2c1-n1cccc1 | inactive: -0.39% | – |
| N#Cc1nc(-c2ccccc2Cl)oc1N1CCN(C(=O)c2ccco2)CC1 | – | inconclusive: 11.2 µM [inhibitor, partial curve] |
| CC(C)C(=O)Nc1ccc(N2CCN(c3ccc(F)cc3)CC2)cc1 | inactive: 3.71% | – |
| CCOC(=O)C1=C(O)c2ccccc2C(=O)/C1=C\c1ccc(CC)cc1 | – | inconclusive: 31.6 µM [inhibitor, single point] |
| Cc1ccc(CSc2nnc(-c3cccnc3)o2)cc1 | – | inconclusive: 31.6 µM [inhibitor, single point] |
| CCOc1ccc(NC(=O)c2ccc(S(=O)(=O)N(C)C)cc2)cc1 | – | inconclusive: 31.6 µM [inhibitor, single point] |
| CCN(C(=O)c1cc2c(=O)[nH]c3ccc(C)cc3c2s1)c1cccc(C)c1 | – | inconclusive: 11.2 µM [inhibitor, single point] |
| Cc1ccccc1-n1c(=O)c2ccccc2n(CC(=O)NCc2ccco2)c1=O | – | inconclusive: 5.62 µM [inhibitor, single point] |
| COC(=O)CS(=O)(=O)c1nnc([C@H](Cc2ccccc2)NC(=O)OC(C)(C)C)o1 | – | inconclusive: 31.6 µM [inhibitor, single point] |
| O=C(NCCOc1ccccc1)c1cccc2c1C(=O)c1ccc(Cl)cc1S2(=O)=O | – | active: 10 µM |
| CCOC(=O)c1c(C)[nH]c(N=Nc2cc(C(=O)O)cc(C(=O)O)c2)c1C | inactive: 3.95% | – |
| COC(c1ccccc1)c1nnc(CCC(=O)NCCc2ccc(Cl)cc2)o1 (stereo not given) | inactive: 5.64% | – |
| Cc1cc(C(F)F)n2ncc(C(=O)NCc3ccccc3C(F)(F)F)c2n1 | – | inconclusive: 8.91 µM [inhibitor, partial curve, poor fit] |
| CCC(C)C(N)C(=O)N1CCCC1C(=O)NC(C(=O)O)C(C)CC (stereo not given) | inactive: -11.2% | – |
| CC(C)(C)c1cc(NC(=O)Nc2ccc(Cl)cc2Cl)no1 | – | inconclusive: 11.2 µM [inhibitor, single point] |
| CCC1(C)OC(=O)NN(c2ccc(C)cc2)C1(C)O (stereo not given) | inactive: -15.4% | – |
| CN1CCN(Cc2c(O)ccc3c2oc(=O)c2ccccc23)CC1 | – | inconclusive: 31.6 µM [inhibitor, single point] |
| CNC(=S)NNc1ccccc1[N+](=O)[O-] | inactive: -25.1% | – |
| Cc1nc2sc3c(NCc4ccco4)ncnc3c2c2c1COC(C)(C)C2 | – | inconclusive: 11.2 µM [inhibitor, partial curve] |
| COc1cc2[nH]c(C(=O)N3CCc4ccccc43)cc2c(OC)c1OC | – | inconclusive: 10 µM [inhibitor, partial curve] |
| Cc1ccc(Oc2ccc(NC(=O)CSc3n[nH]c(N)n3)cc2)cc1 | – | inconclusive: 11.2 µM [inhibitor, partial curve] |
| COC(=O)Cc1[nH]n(-c2nc3ccccc3s2)c(=O)c1C(C)=Nc1ccc(OC)cc1 | – | inconclusive: 31.6 µM [inhibitor, single point] |
| Cc1cccc2sc(NC(=O)CN(C)S(=O)(=O)c3ccc(Br)s3)nc12 | – | inconclusive: 10 µM [inhibitor, partial curve] and inconclusive: 11.2 µM [inhibitor, partial curve] |
| COC(=O)C1=C(c2ccc(C(C)=O)cc2)C[C@@H]2CC[C@H]1N2C(=O)N1CCC(O)(c2ccc(Cl)cc2)CC1 | – | inconclusive: 22.4 µM [inhibitor, single point] |

| Compound | activity change, negative = inhibition | Potency |
| --- | --- | --- |
| N#CCCN(C(=O)CN1CCN(S(=O)(=O)c2ccc3c(c2)OCCO3)CC1)c1ccc(F)cc1 | – | inconclusive: 2.82 µM [inhibitor, partial curve] |
| Cc1ccc2nc3c(c(C(=O)OCC(=O)N(C)C4CCS(=O)(=O)C4)c2c1)CCCC3 (stereo not given) | – | inconclusive: 3.55 µM [inhibitor, full curve] |
| CCOC(=O)C1CCN(C(=O)C2CCN(c3nc4ccc(OC)cc4s3)CC2)CC1 | – | inconclusive: 11.2 µM [inhibitor, partial curve] |
| CN1CCN(C2=Nc3ccccc3Oc3ccc(Cl)cc32)CC1 | – | inactive |
| COC1=CC(=O)C(OC)=C(OC)C1=O | – | inconclusive: 14.1 µM [inhibitor, partial curve] |
| Cc1cc(C)c(-c2cc(NC(=O)COC(=O)c3ccc(NC(=O)CC#N)cc3)n(-c3ccccc3)n2)cc1C | inactive: -3.56% | – |
| Cc1ccc2nc(-c3ccc(NC(=O)CSc4nc(N)cc(=O)[nH]4)cc3)sc2c1 | inactive: -23.6% | – |
| Cc1sc2nc3ccc(N4CCCC4)nn3c(=O)c2c1C | – | inconclusive: 11.2 µM [inhibitor, partial curve] |
| O=C(OCc1ccc([N+](=O)[O-])cc1)C1CC(=O)N(Cc2ccccc2)C1 (stereo not given) | inactive: 16% | – |
| O=C(c1ccc(-c2cccc(C(F)(F)F)c2)o1)N1CCCC(C(F)(F)F)C1 (stereo not given) | – | inconclusive: 11.2 µM [inhibitor, single point] |
| COc1ccc(OC)c(NC(=O)CCN2CCN(c3ccccc3)CC2)c1 | – | inconclusive: 2.51 µM [inhibitor, partial curve] |
| Cn1c(=O)c2c(nc(SCC(=O)NCC3CCCO3)n2Cc2ccc(F)cc2)n(C)c1=O (stereo not given) | – | inconclusive: 6.31 µM [inhibitor, full curve] |
| CCOC(=O)c1sc(NC(=O)c2cccc(S(=O)(=O)N(CC)CC)c2)cc1C | – | inconclusive: 1.58 µM [inhibitor, full curve, poor fit] |
| CCC1CCCCN1CCN1C(=O)C2C(C(=O)Nc3cccc(OC)c3)C3C=CC2(O3)C1C(=O)NC1CCCCC1 (stereo not given) | inactive: -16.6% | – |
| Cc1cc(C(=O)CSc2nc3ccc(Cl)cc3[nH]2)c(C)n1CC1CCCO1 (stereo not given) | – | active: 8.91 µM |
| COc1ccccc1CCC(=O)Nc1nccs1 | – | inconclusive: 2 µM [inhibitor, partial curve] |
| COc1ccc(-c2nc3ccccc3nc2-c2ccc(OC)cc2)cc1 | – | inconclusive: 22.4 µM [inhibitor, single point] |
| CC(C)C1CC(C(=O)Nc2ccccc2)C(=O)O1 (stereo not given) | inactive: 15.1% | – |
| CCOc1ccc2[nH]c(=O)c(CN(CCN3CCCC3)C(=S)Nc3ccccc3OC)cc2c1 | – | inconclusive: 31.6 µM [inhibitor, single point] |
| Cc1nc(N2CCOCC2)sc1C(=O)NN | – | inconclusive: 31.6 µM [inhibitor, single point] |
| O=C(CNC(=O)c1ccccc1)OC(C(=O)Nc1cc(C(F)(F)F)ccc1Cl)c1ccccc1 (stereo not given) | – | inconclusive: 8.91 µM [inhibitor, partial curve, poor fit] |
| CCCCNc1c(-c2cccc(-c3cc(C(C)=O)cs3)c2)nc2ccc(C)cn12 | – | inconclusive: 2.82 µM [inhibitor, full curve] |
| CCN(CC)c1ccc(N=Cc2ccc([N+](=O)[O-])o2)cc1 | – | active: 12.6 µM |
| Cc1cccc(NC(=S)NCCc2ccccc2)c1C | – | inconclusive: 35.5 µM [inhibitor, single point] |

| Compound | activity change, negative = inhibition | Potency |
| --- | --- | --- |
| COc1cc(NC(=O)c2ccccc2)c(OC)cc1NC(=O)CN1CCCCC1 | – | inconclusive: 3.55 µM [inhibitor, full curve] |
| O=C(COc1ccccc1[N+](=O)[O-])OCC(=O)c1ccc(Br)s1 | inactive: 14.2% | – |
| CCN(CC)C(=O)Oc1ccc2c(=O)c(-c3ccc(OC)cc3)coc2c1 | – | inconclusive: 5.01 µM [inhibitor, full curve] |
| S=C(c1ccc(-c2ccccc2)o1)N1CCCCC1 | – | inconclusive: 8.91 µM [inhibitor, partial curve] |
| CCOC(=O)Cc1csc(SC(C)C(=O)NC2CCCCC2C)n1 (stereo not given) | inactive: 19.5% | – |
| COc1ccccc1NS(=O)(=O)c1cccc(C(=O)N/N=C2\CC(=O)CC(C)(C)C2)c1 | inactive: -1.97% | – |
| CCCCCCOC(=O)C1=C(C)NC(=O)NC1c1ccc(O)cc1 (stereo not given) | – | inconclusive: 31.6 µM [inhibitor, single point] |
| COCCNC(=O)C1Cc2c(ccc3ccccc23)O1 (stereo not given) | inactive: -16.5% | – |
| CC(=O)c1ccc(OCC(=O)Nc2cccc(S(=O)(=O)N3CCCC3)c2)cc1 | – | inconclusive: 15.8 µM [inhibitor, partial curve, poor fit] |
| C/C(=N\NC(=O)c1c(Cl)c(C)nn1C)c1cccc(NC(=O)COc2ccccc2)c1 | – | inconclusive: 31.6 µM [inhibitor, single point] |
| CCOC(=O)CSCC(=O)Nc1cc(C)ccc1C | – | inconclusive: 5.62 µM [inhibitor, single point] |
| CCc1nc(N2CCN(C(=O)c3ccco3)CC2)c2oc3ccccc3c2n1 | – | inconclusive: 3.16 µM [inhibitor, partial curve] |
| Cc1ccc2cc(CN(Cc3nnnn3C3CCCC3)C3CCCCC3)c(=O)[nH]c2c1C | inactive: 9.37% | – |
| Cc1[nH]c(C)c(S(=O)(=O)N2CCN(c3ccccc3F)CC2)c1C(=O)N1CCCCC1 | inactive: 34.3% | – |
| CS(=O)(=O)N(CC(=O)N1CCN(Cc2ccc3c(c2)OCO3)CC1)Cc1ccc(Cl)cc1 | – | active: 12.6 µM |
| Cc1ccc(C(=O)Nc2cccc(C(=O)N/N=C/c3ccccc3F)c2)cc1 | inactive: -13.4% | – |
| Fc1cc(Br)ccc1NC(=S)NCCc1ccccc1 | inactive: -5.44% | – |
| COc1cccc2sc(N(CCN(C)C)C(=O)c3ccc4c(c3)CCCC4)nc12 | – | inconclusive: 3.16 µM [inhibitor, partial curve] |
| CCCCc1cc(=O)oc2cc(C)c(CN3CCCC3)c(O)c12 | – | inconclusive: 31.6 µM [inhibitor, single point] |
| COc1ccc(C(=O)Cn2c(NCCO)nc3ccccc32)cc1 | inactive: 9.82% | – |
| C[C@H](CO)N1C[C@H](C)[C@@H](CN(C)S(C)(=O)=O)Oc2c(NC(=O)C3CC3)cccc2C1=O | inactive: -2.17% | – |
| O=C1NC(=O)N(c2ccccc2)C(=O)/C1=C/C=C/c1ccco1 | – | inconclusive: 31.6 µM [inhibitor, single point] |
